Laboratory results from EP4818203A1.

Key:
[1] = target: Lactobacillus plantarum LDH1 protein (Lactobacillus plantarum) (UniProt P56512); test: sandwich ELISA, LDH1 1000 ng/ml, paired with 3B10 at 1 ug/ml
[2] = target: Lactobacillus plantarum LDH1 protein (Lactobacillus plantarum) (UniProt P56512); test: sandwich ELISA, LDH1 1000 ng/ml, paired with 1G9 at 1 ug/ml
[3] = target: Lactobacillus plantarum LDH1 protein (Lactobacillus plantarum) (UniProt P56512); test: sandwich ELISA, LDH1 10 ng/ml, paired with 4F7 at 1 ug/ml
[4] = target: Lactobacillus plantarum LDH1 protein (Lactobacillus plantarum) (UniProt P56512); test: sandwich ELISA, LDH1 10 ng/ml, paired with 2H1 at 1 ug/ml
[5] = target: Lactobacillus plantarum LDH1 protein (Lactobacillus plantarum) (UniProt P56512); test: sandwich ELISA, LDH1 1000 ng/ml, paired with 3D10 at 1 ug/ml
[6] = target: Lactobacillus plantarum LDH1 protein (Lactobacillus plantarum) (UniProt P56512); test: sandwich ELISA, LDH1 100 ng/ml, paired with 3E3 at 1 ug/ml
[7] = target: Lactobacillus plantarum LDH1 protein (Lactobacillus plantarum) (UniProt P56512); test: lateral flow rapid kit, 3D5 on the test line with 2H1-gold conjugate
[8] = target: Lactobacillus plantarum LDH1 protein (Lactobacillus plantarum) (UniProt P56512); test: sandwich ELISA, LDH1 10 ng/ml, paired with 3D10 at 1 ug/ml
[9] = target: Lactobacillus plantarum LDH1 protein (Lactobacillus plantarum) (UniProt P56512); test: sandwich ELISA, LDH1 10 ng/ml, paired with 3B10 at 1 ug/ml
[10] = target: Lactobacillus plantarum LDH1 protein (Lactobacillus plantarum) (UniProt P56512); test: sandwich ELISA, LDH1 100 ng/ml, paired with 2H1 at 1 ug/ml
[11] = target: Lactobacillus plantarum LDH1 protein (Lactobacillus plantarum) (UniProt P56512); test: sandwich ELISA, LDH1 1000 ng/ml, paired with 4F7 at 1 ug/ml
[12] = target: Lactobacillus plantarum LDH1 protein (Lactobacillus plantarum) (UniProt P56512); test: sandwich ELISA, LDH1 100 ng/ml, paired with 3B10 at 1 ug/ml
[13] = target: Lactobacillus plantarum LDH1 protein (Lactobacillus plantarum) (UniProt P56512); test: sandwich ELISA, LDH1 10 ng/ml, paired with 3E3 at 1 ug/ml
[14] = target: Lactobacillus plantarum LDH1 protein (Lactobacillus plantarum) (UniProt P56512); test: sandwich ELISA, LDH1 100 ng/ml, paired with 1G9 at 1 ug/ml
[15] = target: Lactobacillus plantarum LDH1 protein (Lactobacillus plantarum) (UniProt P56512); test: sandwich ELISA, LDH1 1000 ng/ml, paired with 2H1 at 1 ug/ml
[16] = target: Lactobacillus plantarum LDH1 protein (Lactobacillus plantarum) (UniProt P56512); test: sandwich ELISA, LDH1 10 ng/ml, paired with 1G9 at 1 ug/ml
[17] = target: Lactobacillus plantarum LDH1 protein (Lactobacillus plantarum) (UniProt P56512); test: sandwich ELISA, LDH1 100 ng/ml, paired with 4F7 at 1 ug/ml
[18] = target: Lactobacillus plantarum LDH1 protein (Lactobacillus plantarum) (UniProt P56512); test: sandwich ELISA, LDH1 1000 ng/ml, paired with 3E3 at 1 ug/ml
[19] = target: Lactobacillus plantarum LDH1 protein (Lactobacillus plantarum) (UniProt P56512); test: sandwich ELISA, LDH1 100 ng/ml, paired with 3D10 at 1 ug/ml

Sequence of UniProt P56512 (P56512 whole entry): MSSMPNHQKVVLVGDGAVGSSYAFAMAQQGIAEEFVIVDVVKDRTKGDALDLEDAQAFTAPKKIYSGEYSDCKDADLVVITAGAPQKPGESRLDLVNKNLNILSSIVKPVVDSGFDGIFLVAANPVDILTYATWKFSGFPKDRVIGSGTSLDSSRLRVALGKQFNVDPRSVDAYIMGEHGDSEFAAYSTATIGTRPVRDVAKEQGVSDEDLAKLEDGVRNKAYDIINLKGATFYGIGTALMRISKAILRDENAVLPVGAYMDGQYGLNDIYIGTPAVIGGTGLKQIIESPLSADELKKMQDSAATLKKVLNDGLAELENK

B1: monoclonal antibody 3D5 (antibody, V domains shown)
VH: EVQLQQSGPGILQSSQTLSLTCSFSGFSLSTSGMGVGWIRQPSGKGLEWLAHIWWDDVKRYNPALKSRLTISKDTSSSQVFLKIASVDTADTATYYCVRSLLAHYDGYYVIYAMDYWGQGTSVTVSS
VL: DIVLTQTPSSLAVSVGEKVTMS[about 80 residues left out]FGGGTKLEIKR
**Q.** Which OD [1] does the source give for B1 here?
**A.** 1.28 OD

**Q.** What about the OD [2] of the same binder?
**A.** 0.109 OD

**Q.** And the OD [3]?
**A.** 0.113 OD

**Q.** And the OD [4]?
**A.** 0.062 OD

**Q.** And the OD [5]?
**A.** 0.16 OD

**Q.** And the OD [6]?
**A.** 0.103 OD

**Q.** What about the detection level of LDH1 on rapid kit [7] of the same binder?
**A.** 0.032 µg/mL

**Q.** What about the OD [8] of the same binder?
**A.** 0.053 OD

**Q.** What about the OD [9] of the same binder?
**A.** 0.085 OD

**Q.** What about the OD [10] of the same binder?
**A.** 0.093 OD

**Q.** And the OD [11]?
**A.** 0.998 OD

**Q.** And the OD [12]?
**A.** 0.21 OD

**Q.** And the OD [13]?
**A.** 0.085 OD

**Q.** And the OD [14]?
**A.** 0.068 OD

**Q.** What about the OD [15] of the same binder?
**A.** 0.317 OD

**Q.** And the OD [16]?
**A.** 0.062 OD

**Q.** And the OD [17]?
**A.** 0.196 OD

**Q.** And the OD [18]?
**A.** 0.239 OD

**Q.** What about the OD [19] of the same binder?
**A.** 0.064 OD
